The subject of this assay is BDF1 mice, B16 melanoma s.c., survival/tumor T/C. As to the kind of experiment: NCI In Vivo Anticancer Drug Screen. Data for tumor model B16 Melanoma (subcutaneous) in B6D2F1 (BDF1) mice. Here is the method:
The antitumor activity of compounds was measured in mice bearing transplantable tumors. Survival or tumor size were measured and the results are expressed as the measurement made in the treated group (T) divided by the measurement made in the vehicle treated control group (C). The tumor model used in this assay is B16 Melanoma (subcutaneous) in B6D2F1 (BDF1) mice

Results filed as inconclusive are left out. A number of entries come with more than one value. Only these are listed. An entry can have further records. Values given together are repeats in other runs, samples, wells, individuals or studies.

As for `CCCCNCCCNCCCNC(=O)c1csc(-c2csc(CCNC(=O)C(NC(=O)C(C)C(O)C(C)NC(=O)C(NC(=O)c3nc(C(CC(N)=O)NCC(N)C(N)=O)nc(N)c3C)C(OC3OC(CO)C(O)C(O)C3OC3OC(CO)C(O)C(OC(N)=O)C3O)c3cnc[nH]3)C(C)O)n2)n1` (stereo unspecified), where the note is “endpoint: median survival time, dose: 10.0 mg/kg/injection, schedule: Q01DX009 (ip), vehicle: water, higher = longer survival”, the T/C is 120 % of control and 154 % of control.

In the case of `S=P(N1CC1)(N1CC1)N1CC1`, the T/C (endpoint: median survival time, dose: 4.0 mg/kg/injection, schedule: Q02DX009 (ip), vehicle: saline, higher = longer survival) is 102 % of control and 153 % of control.

For the compound `Cc1c(N)nc([C@H](CC(N)=O)NC[C@H](N)C(N)=O)nc1C(=O)N[C@H](C(=O)N[C@H](C)[C@@H](O)[C@H](C)C(=O)N[C@H](C(=O)NCCc1nc(-c2nc(C(=O)NCCC[S+](C)C)cs2)cs1)[C@@H](C)O)C(OC1OC(CO)C(O)C(O)C1OC1OC(CO)C(O)C(OC(N)=O)C1O)c1cnc[nH]1` (stereo partly specified), for the setting “endpoint: median survival time, dose: 12.0 mg/kg/injection, schedule: Q01DX009 (ip), vehicle: saline, higher = longer survival”, the T/C is on record as 94 % of control, 178 % of control, 181 % of control.

With `COc1ccc(C[C@H](N)C(=O)NC2C(CO)OC(n3cnc4c(N(C)C)ncnc43)C2O)cc1` (stereo partly specified), for the setting “endpoint: median survival time, dose: 64.0 mg/kg/injection, schedule: Q01DX009 (ip), vehicle: saline, higher = longer survival”, the T/C is 100 % of control and 173 % of control.

As for `O=NN(CCCl)C(=O)NC1CCC(=O)NC1=O` (stereo unspecified), the T/C (endpoint: median survival time, dose: 0.5 mg/kg/injection, schedule: Q01DX009 (ip), vehicle: Klucel (hydroxypropylcellulose) (HPC), higher = longer survival) was 104 % of control and 155 % of control; the T/C (endpoint: median survival time, dose: 2.0 mg/kg/injection, schedule: Q01DX009 (ip), vehicle: Klucel (hydroxypropylcellulose) (HPC), higher = longer survival) was 115 % of control and 172 % of control.

Take `C[n+]1c(/C=C\C=C\N2CCCCC2)sc2ccccc21`: the T/C (endpoint: median survival time, dose: 0.2 mg/kg/injection, schedule: Q01DX009 (ip), vehicle: Klucel (hydroxypropylcellulose) (HPC), higher = longer survival) was 121 % of control and 182 % of control.

Take `COc1cccc2c1C(=O)c1c(O)c3c(c(O)c1C2=O)C[C@@](O)(C(C)=O)C[C@@H]3OC1CC(N)C(O)C(C)O1` (stereo partly specified): the T/C (endpoint: median tumor weight (est.), dose: 0.13 mg/kg/injection, schedule: Q01DX009 (ip), vehicle: saline, higher = larger tumour) was 69 % of control and 158 % of control.

Regarding `Cc1c(N)nc(C(CC(N)=O)NCC(N)C(N)=O)nc1C(=O)NC(C(=O)NC(C)C(O)C(C)C(=O)NC(C(=O)NCCc1nc(-c2nc(C(=O)NCCCNC(C)c3ccccc3)cs2)cs1)C(C)O)C(OC1OC(CO)C(O)C(O)C1OC1OC(CO)C(O)C(OC(N)=O)C1O)c1cnc[nH]1` (stereo unspecified), the T/C was 113 % of control and 163 % of control (endpoint: median survival time, dose: 2.0 mg/kg/injection, schedule: Q01DX009 (ip), vehicle: water, higher = longer survival); 121 % of control and 150 % of control (endpoint: median survival time, dose: 4.0 mg/kg/injection, schedule: Q01DX009 (ip), vehicle: water, higher = longer survival).

Turning to `O=C1c2c(O)ccc(O)c2C(=O)c2c(NCCNCCO)ccc(NCCNCCO)c21`, under “endpoint: median survival time, dose: 1.0 mg/kg/injection, schedule: Q01DX009 (ip), vehicle: saline with Tween-80, higher = longer survival”, the T/C is reported as 102 % of control, 118 % of control, 159 % of control.

Values taken from PubChem BioAssay AID194 (DTP/NCI, 2004).
